In patent publication US4816449A, “Immunotherapeutic anti-inflammatory peptide agents” (Immunetech Pharmaceuticals, priority 1986, dated 1989):
At least one peptide structure holds a part that was inferred or is arguable (an end, a ring closure or a residue). Where a SMILES comes first, the peptide text is derived from it. Where no end group is shown, it is not given here. [ ]: non-standard residue; d: D form.

Assays:
[1] = system: human natural killer (NK) cell-induced cytotoxicity against K562 human erythroleukemia cells; assay: natural killer (NK) cell assay, chromium 51 release; assay type: cell-based
Protocol: 1. To calculate percent inhibition, the average of the three dilutions of
2. N K effector cells were human mononuclear cells freshly isolated by
when incubated with normal human mononuclear cells (lymphocytes and monocytes) separated by ficoll-metronidazole gradient. […] E., et al., J. Clin. Invest. 67:1324, 1981).
The target cells used were a human erythroleukemia cell line K562 which has molecular structures recognized by NK cells. The K562 targets were prepared by incubating them with the radioactive isotope chromium 51 which is incorporated within the cells. The cells were then washed to remove externally adherent chromium 51 and 20,000 K562 cells were added to 400,000, 200,000 and 100,000 mononuclear cells to provide NK killer-to-target ratio of 20 to 1, 10 to 1, and 5 to 1, respectively, in a final volume of 200 microliters. After a 3-hour incubation at 37° C. in a 5% CO2 atmosphere, the amount of chromium 51 in the supernatent (released from dead target cells) was counted to quantitate the amount of NK killing activity. The killing activity of peptide-treatedcells was compared to non-peptide treated cells to assess the peptide's effect on NK killing activity.

[2] = system: arachadonic acid-induced ear edema; assay: arachadonic acid-induced ear edema model of inflammation; assay type: in vivo; settings: 100 mg/kg subcutaneously 1 hour prior to assay; ear thickness at 90 minutes; female SJL/J mice
[3] = system: local cutaneous allergic reaction (Prausnitz-Kustner); settings: Hamburger, Science 189, 389 (1975); cited from earlier work
[4] = target: T1, IgE Fc receptor of human basophils (Homo sapiens, UniProt P12319); settings: Plummer et al., Fed. Proc. 42, 713 (1983); cited from earlier work
T1 construct: host or cells: human basophils (endogenous receptor)
T1 sequence (P12319 26-257): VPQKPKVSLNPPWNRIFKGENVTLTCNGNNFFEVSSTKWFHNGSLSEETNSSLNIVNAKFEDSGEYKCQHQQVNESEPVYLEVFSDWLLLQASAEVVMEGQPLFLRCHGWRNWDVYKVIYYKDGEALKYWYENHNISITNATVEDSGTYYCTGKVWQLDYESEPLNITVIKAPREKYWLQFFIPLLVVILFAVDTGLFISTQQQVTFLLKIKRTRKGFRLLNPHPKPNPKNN
T1 sequence (Q01362 1-244 partner): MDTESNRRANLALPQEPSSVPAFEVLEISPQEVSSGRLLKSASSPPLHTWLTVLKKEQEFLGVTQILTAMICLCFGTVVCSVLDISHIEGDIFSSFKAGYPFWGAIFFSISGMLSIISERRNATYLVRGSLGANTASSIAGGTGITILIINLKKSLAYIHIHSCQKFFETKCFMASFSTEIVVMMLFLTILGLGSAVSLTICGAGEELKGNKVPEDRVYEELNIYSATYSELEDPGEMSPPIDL
T1 sequence (P30273 19-86 partner): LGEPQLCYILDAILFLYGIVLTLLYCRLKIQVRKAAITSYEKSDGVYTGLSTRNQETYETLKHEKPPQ

[5] = system: systemic allergic disease; settings: injection by the subcutaneous route; cited from earlier work
[6] = peptide 100 μg/ml, (killer-to-target ratio 20 to 1)

## C[C@H](N)C(=O)N[C@@H](CCCNC(=N)N)C(=O)N[C@@H](Cc1c[nH]cn1)C(=O)N[C@@H](CO)C(=O)O [Ala--Arg--His--Ser, Ala-Arg-His-Ser] (H-ARHS-OH)
[1]; peptide 25 μg/ml, 5 to 1
  % inhibition: 30.9%
[1]; peptide 25 μg/ml, 10 to 1
  % inhibition: 39.4%
[1]; peptide 25 μg/ml, 20 to 1
  % inhibition: 42.6%
[1]; peptide 50 μg/ml, 5 to 1
  % inhibition: 42.5%
[1]; peptide 50 μg/ml, 10 to 1
  % inhibition: 35.3%
[1]; peptide 50 μg/ml, 20 to 1
  % inhibition: 39.1%
[1]; peptide 100 μg/ml, 5 to 1
  % inhibition: 41.4%
[1]; peptide 100 μg/ml, 10 to 1
  % inhibition: 42.2%
[1]; [6]
  % inhibition: 49.5%

## DSEPR [Asp--Ser--Glu--Pro--Arg, Asp-Ser-Glu-Pro-Arg]
[2]
  Percent Inhibition (edematous phase of arachadonic acid-induced inflammatory response): 30%

## N=C(N)NCCC[C@H](NC(=O)[C@@H]1CCCN1C(=O)[C@H](CC(=O)O)NC(=O)[C@@H](CO)NC(=O)[C@@H](N)CC(=O)O)C(=O)O [Asp--D--Ser--Asp--Pro--Arg, Asp-D-Ser-Asp-Pro-Arg] (H-D[dS]DPR-OH)
[2]
  Percent Inhibition (edematous phase of arachadonic acid-induced inflammatory response): 39%

## Ac-DSDPR [Ac--Asp--Ser--Asp--Pro--Arg]
[2]
  Percent Inhibition (edematous phase of arachadonic acid-induced inflammatory response): 18%

## C[C@H](NC(=O)[C@H](CC(=O)O)NC(=O)[C@@H]1CCCN1)C(=O)N[C@@H](CCCNC(=N)N)C(=O)O [Pro--Asp--Ala-- Arg, Pro-Asp-Ala-Arg] (H-PDAR-OH)
[1]; peptide 25 μg/ml, 5 to 1
  % inhibition: 44.2%
[1]; peptide 25 μg/ml, 10 to 1
  % inhibition: 44.3%
[1]; peptide 25 μg/ml, 20 to 1
  % inhibition: 47.4%
[1]; peptide 50 μg/ml, 5 to 1
  % inhibition: 43.1%
[1]; peptide 50 μg/ml, 10 to 1
  % inhibition: 51.6%
[1]; peptide 50 μg/ml, 20 to 1
  % inhibition: 46.5%
[1]; peptide 100 μg/ml, 5 to 1
  % inhibition: 69.1%
[1]; peptide 100 μg/ml, 10 to 1
  % inhibition: 67.5%
[1]; [6]
  % inhibition: 60.4%

## C[C@H](NC(=O)[C@@H](N)CC(=O)O)C(=O)N[C@@H](CCCNC(=N)N)C(=O)N[C@@H](Cc1c[nH]cn1)C(=O)O [Asp--Ala--Arg--His, Asp-Ala-Arg-His] (H-DARH-OH)
[1]; peptide 25 μg/ml, 5 to 1
  % inhibition: 62.4%
[1]; peptide 25 μg/ml, 10 to 1
  % inhibition: 59.7%
[1]; peptide 25 μg/ml, 20 to 1
  % inhibition: 55.3%
[1]; peptide 50 μg/ml, 5 to 1
  % inhibition: 58.6%
[1]; peptide 50 μg/ml, 10 to 1
  % inhibition: 60.0%
[1]; peptide 50 μg/ml, 20 to 1
  % inhibition: 68.1%
[1]; peptide 100 μg/ml, 5 to 1
  % inhibition: 42.0%
[1]; peptide 100 μg/ml, 10 to 1
  % inhibition: 48.7%
[1]; [6]
  % inhibition: 43.3%

## DSDPR [Asp--Ser--Asp--Pro--Arg, Asp-Ser-Asp-Pro-Arg]
[2]
  Percent Inhibition (edematous phase of arachadonic acid-induced inflammatory response): 56%
[3]
  inhibition of local cutaneous allergic reaction (Prausnitz-Kustner): approximately 90%
[4]
  block of human IgE binding to basophil IgE Fc receptors: up to 70%
[5]
  inhibition of systemic allergic disease in humans: inhibit systemic allergic disease in humans

## ESDPR [Glu--Ser--Asp--Pro--Arg, Glu-Ser-Asp-Pro-Arg]
[2]
  Percent Inhibition (edematous phase of arachadonic acid-induced inflammatory response): 9%

## CC(C)[C@H](NC(=O)[C@H](CC(=O)O)NC(=O)[C@@H](CO)NC(=O)[C@@H](N)CC(=O)O)C(=O)N[C@@H](CCCNC(=N)N)C(=O)O [Asp--D--Ser--Asp--Val--Arg, Asp-D-Ser-Asp-Val-Arg] (H-D[dS]DVR-OH)
[2]
  Percent Inhibition (edematous phase of arachadonic acid-induced inflammatory response): 70%

## DSDPK [Asp--Ser--Asp--Pro--Lys, Asp-Ser-Asp-Pro-Lys]
[2]
  Percent Inhibition (edematous phase of arachadonic acid-induced inflammatory response): 17%
